Results on 84 variants are retold here after the RNAGym collection of RNA variant scans (doi:10.1073/pnas.2313332121).

The labels stand for the following.
B1: TPR 5TU (parent)
chain: GGAUCUUCUCGAUCUAACAAAAAAGACAAAUCUGCCACAAAGCUUGAGAGCAUCUUCGGAUGCAGAGGCGGCAGCCUUCGGUGGCGCGAUAGCGCCAACGUUCUCAACUAUGACACGCAAAACGCGUGCUCCGUUGAAUGGAGUUUAUCAUG

Variants at the background level are over-represented here.

Variants of B1 are the subject of the series. Kind of series: polymerase ribozyme fitness, log enrichment relative to wild type (log ratio); higher = more active; in vitro selection for triplet polymerase activity. In short, it runs like this: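 Each subunit of a heterodimeric triplet polymerase ribozyme was represented by a PCR-built, transcribed mutant library that underwent triplicate single-round in vitro selection with frozen incubation at −7 °C. Extended constructs were recovered by gel excision, streptavidin-bead capture and RT-PCR, and Illumina sequencing of input and output libraries kept genotypes with ≥10 input reads and ≥1 read per output. Fitness is the logarithm of genotype enrichment relative to wild-type enrichment, from inverse-variance-weighted replicate averages, with a logarithm base of 2.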
As to A19U G48C C54U U55A C114A C129A U130C, the “polymerase ribozyme fitness (log ratio)” value was at most -4.2.
The figure for A20G A64C G67A C93U G94C U145G is at most -4.2; for A20C C51G U56G A73G C87G G112C A115C A119U A120G G141C A150U it is at most -4.2; for A20G C32U C38U A73G G86A A137U it is at most -4.2.
As for A20G C54G C96U, the “polymerase ribozyme fitness (log ratio)” value is -2.
A19G A21G U33G G128C U148C: the “polymerase ribozyme fitness (log ratio)” value is at most -4.2.
On to A19G U109G U139C U144C U148C, for which the “polymerase ribozyme fitness (log ratio)” value is -4.14.
Take A20C A24U C51A G88A C96G: the “polymerase ribozyme fitness (log ratio)” value was at most -4.2.
For A19U U55G C63G G68U C69U C99A A138C, the “polymerase ribozyme fitness (log ratio)” value is at most -4.2.
For the variant A19G A47U G84U C96A A98G C99U G100C A110U, the “polymerase ribozyme fitness (log ratio)” value is at most -4.2.
The figure for A19U A29U C93U G117U is at most -4.2; for A20C A29C A49C C87A G94U G133U it is at most -4.2; for A19G C54U C57U G59C A60C G83U A97G C108U A120U it is at most -4.2.
The figure for A20G A29U C51G C87G is at most -4.2; for A20G A91U it is at most -4.2.
The figure for A19U C32A G84A G128U C131U A137G is -3.73.
For the variant A20U A23U C35U A37C G50A C76G A89C, the “polymerase ribozyme fitness (log ratio)” value is at most -4.2.
Turning to A19G A49G A64G A73U C125A C131G U151C, the “polymerase ribozyme fitness (log ratio)” value was at most -4.2.
The figure for A20C U56G G92U is -0.962; for A19U G58A G94U C116A A119C it is -0.758; for A20G A73U G83A it is -2.36.
With A20G G58A G81C A142C the figure was -1.55.
The figure for A20C C76U C85U C95U C96U is -3.03; for A19U C32G A39C C103G it is at most -4.2.
On to A19G U44A U55A G62C C93U, for which the “polymerase ribozyme fitness (log ratio)” value is at most -4.2.
For A20C U31A A49C A60C G83A G92C, the “polymerase ribozyme fitness (log ratio)” value was at most -4.2.
Regarding A19C G50A C51A C87A U111C, the “polymerase ribozyme fitness (log ratio)” value is at most -4.2.
With A20C A26U C54A U82A C95G C96A C103G C114A U134G G136A the figure was at most -4.2; with A20U A52G G58A C76G G81A G86A A122C, at most -4.2; with A20U A29G G48C A49C G117A U134G A137C U139A, at most -4.2.
With A19U A23G A49C A66G G84U U102C C105G G126U the figure was at most -4.2; with A20C C35G U78A, at most -4.2; with A20U A24C A39U U53A C57G C96U A106U G117A, at most -4.2.
On to A20U C36U A49C G68U U102G G141A, for which the “polymerase ribozyme fitness (log ratio)” value is at most -4.2.
For A19C A29C C35G G58U A73G G92C U148A, the “polymerase ribozyme fitness (log ratio)” value was at most -4.2.
With A20U A28C C36U C43U A73C C93A the figure was at most -4.2.
The figure for A20C A41C C108A is at most -4.2; for A19C U44A C57U U61A U145G it is at most -4.2.
Turning to A19U A73G C87A C93A C99G G136U, the “polymerase ribozyme fitness (log ratio)” value was at most -4.2.
Regarding A20C A21G A23C A28U C38A, the “polymerase ribozyme fitness (log ratio)” value was at most -4.2.
With A20C A73C G81A U90C G92C U104G the figure was at most -4.2.
The figure for A19U C131A is -1.75; for A19U A49C A52G A106G it is at most -4.2.
The figure for A20G G59A U77A C95U G117U C118G A122U is at most -4.2.
For the variant A20G A24U C85A C116A, the “polymerase ribozyme fitness (log ratio)” value is -0.238.
As to A20G G80A U82G C95U, the “polymerase ribozyme fitness (log ratio)” value is -1.15.
The figure for A19G A39C C43U A73G G83A G128U is at most -4.2; for A20G A24G A40C A49C C85A it is at most -4.2.
With A20U A28G A29G A41G C95U A115U U144A U145A the figure was at most -4.2; with A19U U44G C93A, at most -4.2.
Consider A19C G48C G50A C85U C118G G136U, for which the “polymerase ribozyme fitness (log ratio)” value was at most -4.2.
The figure for A19U A26C C79A C85U A122G is at most -4.2; for A20U A30G C54G G59A G86A A89G U90G it is at most -4.2.
The figure for A20G G83C U90C G136U is at most -4.2; for A19U A20G A66G G80A C87A A107G A110C it is at most -4.2.
For A19U A24U C32U C76A G141C, the “polymerase ribozyme fitness (log ratio)” value was at most -4.2.
The figure for A19U C43A A47C G83A G126U U146A A147U is at most -4.2; for A20C A41C A49C C54A U56A U77G C93A C103A it is at most -4.2.
With A20G C85U A91G C95A G126C the figure was at most -4.2.
Regarding A20G A23C G68A A91G, the “polymerase ribozyme fitness (log ratio)” value is at most -4.2.
On to A20G C36G A39U C54A, for which the “polymerase ribozyme fitness (log ratio)” value is at most -4.2.
Turning to A19U C85G A121G, the “polymerase ribozyme fitness (log ratio)” value is -1.62.
For A19U A26U G46A C87A A91U G94A U127C G143C, the “polymerase ribozyme fitness (log ratio)” value is at most -4.2.
With A19U G46U G48A C93U A98U the figure was at most -4.2; with A19G A47U G84A C85G A147C, at most -4.2; with A19C C32G G46C G84A C116G G141U, at most -4.2.
The figure for A19C G50C U55A G68U C85U U127A is at most -4.2; for A19C G48C U61A C79U C96U it is at most -4.2; for A20C A23C C51U G83U C85U C99U C118G it is at most -4.2.
On to A19U A41C G58A C85G, for which the “polymerase ribozyme fitness (log ratio)” value was -2.71.
With A20U A26C A47U U56C A60G G92U C132U the figure was at most -4.2.
With A20U A22C G48A A73U C114G G141C the figure was at most -4.2; with A19C A40C C54G G58A U61A U104C, at most -4.2; with A19U C32A G70A G84A, at most -4.2.
With A19U A23U G65U U109C G143A the figure was at most -4.2.
As to A20U A21U A26G A89G C96A U145A A150G, the “polymerase ribozyme fitness (log ratio)” value is at most -4.2.
The figure for A19U A29C A91C C93U U104G is at most -4.2; for A20C G80C A91C G100U U144C it is at most -4.2; for A20C G136A it is -0.55.
With A20C C36G U82G C116A A119C A138G the figure was at most -4.2; with A19C C36A C79G C114A G141A, at most -4.2.
As to A19U G25U C35A G65U A91U A120G G140A A142U, the “polymerase ribozyme fitness (log ratio)” value is -4.19.
With A19U C69A U77A C116G C125U G141A the figure was at most -4.2; with A19U A26G C27U A66C, at most -4.2.
